Test results as given in PubChem BioAssay AID1745853 (National Center for Advancing Translational Sciences (NCATS), 2022).
The other results are listed elsewhere or left out. Shown are side measurements of this screen, not its main read-out; they come without a call.

Columns and labels:
Assay in all cases: Primary Screen for Target Class Profiling of Small Molecule Inhibitors of Methyltransferases
[1] = biological target: Glycine N-methyltransferase (Homo sapiens) (UniProt Q14749); conditions: purified enzyme, MTase-Glo SAH luminescence; measured here: GNMT inhibition; at 40 µM; stronger effect = lower value
Summary of the method: (§1)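 Each enzyme was assayed with SAM and its substrate. SAH formation detected by MTase-Glo luminescence; single-point 40 uM screen[…].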

[2] = biological target: Guanidinoacetate N-methyltransferase (Homo sapiens) (UniProt Q14353); conditions: purified enzyme, MTase-Glo SAH luminescence; measured here: GAMT inhibition; at 40 µM; stronger effect = lower value
Summary of the method: as §1

[3] = biological target: Histamine N-methyltransferase (Homo sapiens) (UniProt P50135); conditions: purified enzyme, MTase-Glo SAH luminescence; measured here: HNMT inhibition; at 40 µM; stronger effect = lower value
Summary of the method: as §1

[4] = biological target: Nicotinamide N-methyltransferase (Homo sapiens) (UniProt P40261); conditions: purified enzyme, MTase-Glo SAH luminescence; measured here: NNMT inhibition; at 40 µM; stronger effect = lower value
Summary of the method: as §1

[5] = biological target: Phenylethanolamine N-methyltransferase (Homo sapiens) (UniProt P11086); conditions: purified enzyme, MTase-Glo SAH luminescence; measured here: PNMT inhibition; at 40 µM; stronger effect = lower value
Summary of the method: as §1
% is scaled to controls: 0 for no effect and ±100 for the full control effect.

Structure (SMILES) | activity change, negative = inhibition [1] [%] | activity change, negative = inhibition [2] [%] | activity change, negative = inhibition [3] [%] | activity change, negative = inhibition [4] [%] | activity change, negative = inhibition [5] [%]
CN(Cc1ccccc1)S(=O)(=O)c1ccc2c(c1)n(C)c(=O)n2C | -3.57 | 0.938 | -1.11 | 5.68 | -2.46
CC1(C(=O)NC2CCCCCC2)Cn2c(ccc2-c2ccco2)C(=O)N1Cc1ccccc1F (stereo not drawn) | -5.83 | 4.83 | -2.39 | -13.3 | -2.56
O=C(O)C1CC2(CCN(C(=O)CCCn3ccnc3)CC2)CN1 (stereo not drawn) | -5.42 | -7.35 | -3.86 | -7.59 | -5.38
Cc1ccc(Cl)cc1N1CCN(S(=O)(=O)c2cc3[nH]c(=O)[nH]c3cc2Br)CC1 | 0.787 | 5.86 | 4.16 | 11.7 | -0.839
O=C(Cn1nc2n(Cc3ccccc3)c(=O)c3ccccc3n2c1=O)Nc1ccccc1F | -2.11 | 5.34 | 0.98 | 1.3 | 0.741
Clc1ccc2ncc(-c3cccc(NC4CCNC4)n3)n2c1 (stereo not drawn) |  | 3.14 |  | -14.7 | -3.95
CCc1cc2c(cc3n2CC(C)(C(=O)NC2CCCCC2)N(Cc2ccc(OC)cc2)C3=O)s1 (stereo not drawn) | -10.7 | 0.3 | -9.58 | -7.28 | -10.3
CCc1c(C)[nH]c2c1C(=O)C(CN1CCOCC1)CC2 (stereo not drawn) | -22 | 9.62 | 6.47 | -6.13 | -4.42
O=C(CC1CCN(C(=O)c2ccc(F)cc2)C1)NCc1ccccc1 (stereo not drawn) | -6.66 | -13.9 | -3.54 | -14.5 | -9.69
Cc1ccc(N(C)C(=O)Cn2c(=O)oc3cc(S(=O)(=O)N4CC(C)CC(C)C4)ccc32)cc1 (stereo not drawn) | -5.8 | 0 | 9.72 | 9.34 | 4.28
COc1cc(NC(=O)c2cccc(-n3cc(NC(=O)Nc4cccc(C)c4)cn3)c2)cc(OC)c1OC | 0.694 | 9.44 | -9.32 | -8.18 | 2.61
NC(=O)CNCCC(c1ccccc1)c1ccccc1 | 8.71 | 15.8 | 13.1 | -3.48 | 3.04
CCCn1c(=O)c2ccc(Cl)cc2n2c(=O)n(Cc3cccc(OC)c3)nc12 | 2.83 | 3.91 | 12.2 | 1.96 | 4.53
CCn1nc(CNC(=O)Cc2ccccc2F)c2ccccc21 | 3.87 | 1.45 | 3.46 | 1.33 | 4.39
O=c1[nH]c2ccc(S(=O)(=O)Nc3cccc(F)c3)cc2[nH]1 | 3.12 | 0 | 3.06 | 0.958 | -8.95
C=CC(=O)Nc1cc(Nc2nccc(-c3cn(C)c4ccccc34)n2)c(OC)cc1N(C)CCN(C)C | -23.7 | 5.85 | -33.8 | -13 | -17.4

Structure (SMILES) | activity change, negative = inhibition [1] [%] | activity change, negative = inhibition [2] [%] | activity change, negative = inhibition [3] [%] | activity change, negative = inhibition [4] [%] | activity change, negative = inhibition [5] [%]
CCC(NS(=O)(=O)c1ccc(C(=O)NC2CC2)cc1)c1cnn(C)c1 (stereo not drawn) | -4.51 | -4.91 | -2.14 | -4.42 | -10.9
CCO/C([O-])=N/c1c[n+](N2CCOCC2)no1 | 10.1 | 13.7 | 5.25 | -6.76 | -0.428
O=C1c2cnc(-c3cc4ccccc4o3)nc2OCCN1CC1CC1 | -19.3 | -17 | -17.7 | -20.8 | -12.1
O=C(NCc1noc(-c2cccs2)n1)[C@H]1CNC[C@H](C(=O)N2CCCC2)C1 | -2.06 | 2.07 | 0.168 | -1.51 | -23.1
Cc1ccc(CN2C(=O)c3cc(-c4cccs4)nn3CC2(C)C(=O)NC2CCCCCC2)cc1 (stereo not drawn) | 0.427 | 0 | 3.45 | 2.28 | -2
COc1ccc(OC)c(CNC(=O)CC2C(=O)NCCN2CC=C(C)C)c1 (stereo not drawn) | -7.74 | -8.86 | -5.13 | -15.8 | 7.54
CN1CC2(CCCN(C3CCN(C(=O)c4cnccn4)CC3)C2)OC1=O (stereo not drawn) | -2.74 | 0.603 | 3.12 | 0.966 | 5.35
CCCn1c(=O)c2ccc(C(=O)NC(C)CC)cc2n2c(=O)n(CC(=O)NC(C)(C)C)nc12 (stereo not drawn) | 5.22 | 0 | 12 | 2.26 | 6.22
CSc1ccc(-c2nc3c([nH]2)CC(C)(C)CNC3=O)cc1 | -6.2 | 0.89 | -3.75 | -9.27 | -0.576
COC(=O)c1ncn2c1C(=O)N(Cc1cccc(OC)c1OC)C(C)(C(=O)NC1CCCC1)C2 (stereo not drawn) | 4.1 | 0 | 6.57 | 0.1 | 4.41
CC1(C(=O)NC2CCCCC2)Cn2nc(-c3ccco3)cc2C(=O)N1c1ccc(F)cc1 (stereo not drawn) | -1.02 | 5.38 | -2.74 | -1.45 | -3.47
CCCn1c(=O)c2ccc(Cl)cc2n2c(=O)n(CC(=O)c3ccc(F)cc3)nc12 | -1.31 | 0 | 11.1 | 1.18 | 6.62
COc1ccc(OC)c(S(=O)(=O)N2CCC3(CC2)CC(CC(=O)N2CCCC2)CCO3)c1 (stereo not drawn) | -7.42 | 1.44 | -4.01 | -10.1 | -3.45
Cn1c2ccc(F)cc2c2c(C(=O)N3CCCC3)cn(-c3ccccc3)c(=O)c21 | 6.9 | 3.89 | 7.43 | -22.8 | -2.58
CCOC(=O)c1cc2n(n1)CC(C)(C(=O)NC1CCCCCC1)N(c1ccc(Cl)cc1C)C2=O (stereo not drawn) | 2.92 | 0.225 | -5.9 | 0.565 | 2.81
